67 sequences from the supplement of paper PMC10126150 can be followed below.

Values marked as one replicate rest on one cluster of the flow cell; about a third of the high ones do not repeat.

This data set concerns ATP. Nature of the data set: switch fluorescence ratio, 500 uM ATP over buffer (Cy3 cluster intensity, sum of 5 cycles each) (fold (ratio)); higher = stronger signal-on switching upon ATP binding; sequences stand for … in TCGTCGGCAGCGTCAGATGTGTATAAGAGACAGTTTTTTTTTTTTTTTTTTTTTTTTT…TC. The following applies: aptamer strand: ATP DNA aptamer (quencher-CACCTGGGGGAGTATTGCGGAGGAAGG + anchor), 100 nM annealed; ATP concentration: 500 uM; one replicate. An outline of the steps:
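Values give the fluorescence ratio for each switch-domain sequence, averaged from per-cluster ratios of summed target-cycle to summed buffer-cycle Cy3 intensity. The Cy3-labelled switching-strand clusters sat on a modified Illumina MiSeq flow-cell, were annealed to 100 nM quencher-labelled ATP aptamer, and were imaged in selection buffer, then after 15 min with 500 uM ATP at 22 °C. Five cycles ran with NaOH stripping and re-annealing between them, and clusters outside 100-1000 RFU were excluded.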
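Further: ATP exposure 15 min at 22 °C before imaging.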

As to GACTGCGACG, the switch fluorescence ratio amounted to 1.01.
The figure for AACTTAAGT is 0.987; for AAAGGTTGTG it is 0.96.
Turning to ATAATCTAAA, the switch fluorescence ratio is 0.969.
The value for TATTTGAATA was 0.964; that for CCTACTTATG was 1.02.
The value for ATGGCGTCGA was 0.947; that for CCCATGCACT was 1.22.
Take TCACAGTTAT: the switch fluorescence ratio was found to be 1.03.
The value for CGTAGACTAA was 0.976.
Consider TGGAAGGCAA, for which the switch fluorescence ratio was determined as 1.
The figure for GTATCTGGCT is 1.02; for ACTGTTCGCG it is 1.03.
The value for ACCCTTTTCA was 0.981; that for GGGCGTGGCT was 1.02.
The value for GAGTGGTCGG was 1.
Turning to TTTGCGAAAC, the switch fluorescence ratio worked out at 1.9.
The figure for ATTACAAACT is 1.15.
In the case of GGCGCTACCA, the switch fluorescence ratio is 1.
The value for TTTGTCCCCT was 0.965; that for TCGATGTGCA was 0.995.
Turning to ATTGTTGTAT, the switch fluorescence ratio amounted to 0.967.
The value for TATGAAGCA was 1.01; that for TAGGCGATAG was 1.03.
Take CAAAATCGTT: the switch fluorescence ratio is 0.985.
The value for GCTTAACGAC was 1.13.
TTTCATCCAC: the switch fluorescence ratio was determined as 1.18.
The figure for AGTGGACCGT is 1.04; for CTATTTGCTG it is 0.953.
CCGATCCTTA: the switch fluorescence ratio worked out at 1.02.
The value for TCGGCACAAC was 1.67.
The figure for CATCTTGTCA is 1; for CTGCGGGAGT it is 1; for AGTGGAGGCG it is 1.09.
The value for AGTCGGGGTG was 2.75; that for GTGTAAATGA was 0.992.
For TTAAGGAGG, the switch fluorescence ratio is 0.992.
The value for TAGTGTGAGC was 1.01; that for TTACAAGCTC was 1.1; that for ATTGGGAGGC was 0.998.
TGGTCTTTCT: the switch fluorescence ratio was 1.02.
The figure for TAAAGCTGCG is 0.993.
The figure for GCGCGAGCAA is 1.03; for ACCCAACCTG it is 1.14.
The value for TCCCGCGTC was 2.69.
Consider TTTGGGAGAA, for which the switch fluorescence ratio turned out to be 0.962.
On to CTCACCGGTG, for which the switch fluorescence ratio turned out to be 1.39.
As to TGTGATTCA, the switch fluorescence ratio amounted to 0.964.
For the sequence ATCCAGAGCC, the switch fluorescence ratio is 1.07.
The figure for TCCTTAAGC is 1.41; for CCCTTGGAGC it is 1.48.
Turning to CGTACTTTCG, the switch fluorescence ratio is 1.03.
The value for CGGGGATCGC was 0.954.
The figure for TTTCTATAAG is 0.975; for ATTAATCTGG it is 1.01.
Regarding GTGCATCCG, the switch fluorescence ratio came to 0.995.
As for AACTTGAGTG, the switch fluorescence ratio stood at 1.06.
As to TGGCTCATCG, the switch fluorescence ratio amounted to 1.
For the sequence GTAAGGGTCA, the switch fluorescence ratio worked out at 1.01.
With GAAATCGCCC, the switch fluorescence ratio is 1.05.
On to TAAATGGT, for which the switch fluorescence ratio was determined as 0.981.
The figure for CTGATTCGTT is 1.01; for ACGACTGCGA it is 3.08.
Turning to CCGGACGGTG, the switch fluorescence ratio was determined as 1.03.
The value for GTACATGGGT was 1; that for TTTTGGCGAG was 0.98.
On to GGCAGCGGGT, for which the switch fluorescence ratio is 0.981.
